Measurements: paper PMC7819943, “Rice protein-binding microarrays: a tool to detect cis-acting elements near promoter regions in rice”
The other results are listed elsewhere or left out.

These sequences were tested against T1, OsWOX13 (Oryza sativa, UniProt Q5QMM3 1-267) (assay: protein-binding microarray (RPBM); PBS, 2% BSA, 51.3 ng/ul salmon testes DNA, 50 uM zinc acetate, 200 nM TF, 25 C, 1 h; high values mean tight binding). Conditions: protein: recombinant; tags: N-terminal polyhistidine and DsRed monomer fusion (pET32a); label: CyDye5-dUTP incorporated in the synthesized complementary strand; 3' TTTTT single-stranded linker to array surface; dsDNA, one strand shown.
T1 sequence: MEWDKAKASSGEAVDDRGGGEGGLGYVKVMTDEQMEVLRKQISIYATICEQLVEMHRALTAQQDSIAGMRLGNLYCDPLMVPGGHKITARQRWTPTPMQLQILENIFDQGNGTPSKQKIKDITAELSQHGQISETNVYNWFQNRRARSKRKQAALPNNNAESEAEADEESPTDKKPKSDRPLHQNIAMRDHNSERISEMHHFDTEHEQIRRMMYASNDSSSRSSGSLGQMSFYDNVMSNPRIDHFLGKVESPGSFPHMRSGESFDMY
How it was run: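 Transcription factors, each fused N-terminally to a polyhistidine tag and DsRed, were expressed in E. coli BL21-CodonPlus and purified on Ni–NTA. A custom Agilent array was made double-stranded by primer extension with Cy5-dUTP and blocked with 2% BSA. It was incubated with 200 nM protein in PBS, 2% BSA, salmon testes DNA and 50 µM zinc acetate at 25 °C for 1 h, then washed. The binding signal is per-feature fluorescence intensity (arbitrary units) read on an Axon 4000B scanner.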

| Sequence | binding signal |
| --- | --- |
| TTTAATTATTAACACCAAGGTGTCATGCCGTGAGTGTATCCGGAGTCACCTAGTGCAG | 16700 fluorescence intensity (a.u.) |
| TGAAATTGATTGTCGTAGGAATTCAGGTGCTTTACTCAAGCGGAGTCACCTAGTGCAG | 36100 fluorescence intensity (a.u.) |
| TCGATGTACTCAAGATTGATGATATGCTTAAGAAGGGATGCGGAGTCACCTAGTGCAG | 7440 fluorescence intensity (a.u.) |
| ATAATTGAAAGTTAATCAAACTGGATATAGAAATTATTATCGGAGTCACCTAGTGCAG | 23800 fluorescence intensity (a.u.) |
| TTCCACTTGATTTCGTGAAATTTCGAATTTCACCGGTGCTCGGAGTCACCTAGTGCAG | 4120 fluorescence intensity (a.u.) |
| TATTTAATTGGTCCTATGGTACTTGCAGATTAATGTTGGCCGGAGTCACCTAGTGCAG | 37600 fluorescence intensity (a.u.) |
| ACTTAGATTAACTAACATATATGTATAAATAGGTACACAACGGAGTCACCTAGTGCAG | 15700 fluorescence intensity (a.u.) |
| ATTATTTGATTGTGGTTTAATTGTTGGTGCAACAGGGTTACGGAGTCACCTAGTGCAG | 47900 fluorescence intensity (a.u.) |
| TATATAATTAACTTGGACCATAGTACATGTGGTTTTATAACGGAGTCACCTAGTGCAG | 11100 fluorescence intensity (a.u.) |
| AAATGATGTTGATACTTGATTGGTGATATGGCACTAGTGTCGGAGTCACCTAGTGCAG | 34600 fluorescence intensity (a.u.) |
| GAAATTGGAGATGATGTGACTGAAAAGTTGTGTGTGTATGCGGAGTCACCTAGTGCAG | 17200 fluorescence intensity (a.u.) |
| ATCTAGGATTGGATAAACGAATTTGAACGAATTCATACATCGGAGTCACCTAGTGCAG | 5800 fluorescence intensity (a.u.) |
| GTTGTGATTGGTTGAGTAGTAGAGGTAGGTGGGAAAAGTGCGGAGTCACCTAGTGCAG | 43500 fluorescence intensity (a.u.) |
| CATAAATTGCATGGGACAATCCTCTAGTTTTATTAAAAGACGGAGTCACCTAGTGCAG | 12200 fluorescence intensity (a.u.) |
| AAAGATTTATACATACTGCATGTTGGAATTTGAAGTCCATCGGAGTCACCTAGTGCAG | 3640 fluorescence intensity (a.u.) |
| ACGCTATAATTAACTGTTTCGTTTTCCGTGCCGAGGGAATCGGAGTCACCTAGTGCAG | 22900 fluorescence intensity (a.u.) |
| TACGATTGACAAAGATATAAAATTTAAATTTAAAAGTATCCGGAGTCACCTAGTGCAG | 20800 fluorescence intensity (a.u.) |
| GGGAGATAGATCTTTAATCCTGATTGATGATACCAATCGGCGGAGTCACCTAGTGCAG | 29400 fluorescence intensity (a.u.) |
| AGATACTTAATTAGTGTCTTCTATAAGCAAAGGTCAGGAACGGAGTCACCTAGTGCAG | 11300 fluorescence intensity (a.u.) |
| GCTTAAATGATTTTCTTTGTTTGGCTAATTGGTACATGTTCGGAGTCACCTAGTGCAG | 45500 fluorescence intensity (a.u.) |
| TATTGTCACTGCAATTTGATGGAGATTAGGCCGTGAAGTGCGGAGTCACCTAGTGCAG | 3630 fluorescence intensity (a.u.) |
| GCTGATAGAATGTGCAGTTGGTGATTAGTGCGGACCTGGGCGGAGTCACCTAGTGCAG | 47100 fluorescence intensity (a.u.) |
| AATTAATGTCATGATGACCAATGTCGTGATGACTTCATATCGGAGTCACCTAGTGCAG | 4510 fluorescence intensity (a.u.) |
| CTGAATCCAATCATTCGCTTTCTAAAAGGAAGCAGCTCATCGGAGTCACCTAGTGCAG | 3260 fluorescence intensity (a.u.) |
| TTACGTGGACATCTCAATTATAATCTTTGTAAATATAGATCGGAGTCACCTAGTGCAG | 3390 fluorescence intensity (a.u.) |
| TATTGACTATTTTATTATTTGATGTCATTTAAGGTTCTAACGGAGTCACCTAGTGCAG | 3180 fluorescence intensity (a.u.) |
| CGTAATTACTTTCCCCATCCATCAACCATAGTAGTCTTCCCGGAGTCACCTAGTGCAG | 38400 fluorescence intensity (a.u.) |

| Sequence | binding signal |
| --- | --- |
| ATGTACGGCTAGTATTGATTGATGTCGCCAGGCGTTAGCTCGGAGTCACCTAGTGCAG | 21800 fluorescence intensity (a.u.) |
| GACGGATTAATTAGGCTTAATAAATTTGTCTCGCAGTTTACGGAGTCACCTAGTGCAG | 19800 fluorescence intensity (a.u.) |
| TCTCAATTATACTAACTGCAAATCCAGATGCCCCAAACAACGGAGTCACCTAGTGCAG | 9220 fluorescence intensity (a.u.) |
| GACCTTGATGAGGGAGGGGATGGAGCGGATGCGGCGGCGGCGGAGTCACCTAGTGCAG | 7830 fluorescence intensity (a.u.) |
| TTTTAAGAAAATTGAATTAAATGAGTCCATTAGGTATGCACGGAGTCACCTAGTGCAG | 6370 fluorescence intensity (a.u.) |
| TATGATAAATTACATTTGGGAGGTGTAATAGTATTTTGTTCGGAGTCACCTAGTGCAG | 9260 fluorescence intensity (a.u.) |
| GTAATTGAATATTTACAATGAAGTCTCGACGGTATTCAATCGGAGTCACCTAGTGCAG | 24700 fluorescence intensity (a.u.) |
| GCTAATTAAGTCCATTGCACATAGATCGATATGTGTACACCGGAGTCACCTAGTGCAG | 27700 fluorescence intensity (a.u.) |
| GCAAATATAAATCATTTATGAGTAAAAGTTTTATTTGTGTCGGAGTCACCTAGTGCAG | 9490 fluorescence intensity (a.u.) |
| TTATTTGACACAATGCGATTGAATTGGGGTGCAGGAGTATCGGAGTCACCTAGTGCAG | 6780 fluorescence intensity (a.u.) |
| TAAATTAACATGCATTAATCCTCTTATTTTAATTTTAAATCGGAGTCACCTAGTGCAG | 5780 fluorescence intensity (a.u.) |
| GAATTTAATTACCAACTGCAATGGCGTATTCGAGTGATGTCGGAGTCACCTAGTGCAG | 19900 fluorescence intensity (a.u.) |
| CTATGATTTGATGATGGTGGGACACGCACCAACCAATCAACGGAGTCACCTAGTGCAG | 48800 fluorescence intensity (a.u.) |
| TTAATTGTTTGCCGTCTGCTAATCTTGATTCTTGCACAAACGGAGTCACCTAGTGCAG | 6380 fluorescence intensity (a.u.) |
| ATTAAATTTAAAGTTGATTTTGGGATCTTTTCATGGTAATCGGAGTCACCTAGTGCAG | 31700 fluorescence intensity (a.u.) |
| AGATAGATAGATAGATAGATACATGGTGAAGAAGATTCTACGGAGTCACCTAGTGCAG | 24500 fluorescence intensity (a.u.) |
| GACCTGGTGATTGGTGGCAGCCCGTGCAACAACCTTGCTGCGGAGTCACCTAGTGCAG | 32000 fluorescence intensity (a.u.) |
| CCTTCATTAATTAATATATGATGTTGGGAGTATATCTTTACGGAGTCACCTAGTGCAG | 21900 fluorescence intensity (a.u.) |
| CCTAATCACCTGATTAGTTGAAAATGGTTAAAACCCCGTACGGAGTCACCTAGTGCAG | 27800 fluorescence intensity (a.u.) |
| GGGCTAAAATTTTATTTACTCTACTCCCTCCATATTCCCTCGGAGTCACCTAGTGCAG | 3500 fluorescence intensity (a.u.) |
| ATGAAATTTACTCCATATATGTAATTACCTACAAAGCAGTCGGAGTCACCTAGTGCAG | 7630 fluorescence intensity (a.u.) |
| AATAATTGTCACCAAGAGTCCAAGACCAAGTGGGCATCAACGGAGTCACCTAGTGCAG | 7460 fluorescence intensity (a.u.) |
| AACCAATCACGTCGCAGATAAGGCCTGACAGGTGTGCCCCCGGAGTCACCTAGTGCAG | 32700 fluorescence intensity (a.u.) |
| CTAACGAACCAATCAATCACCCGTGTGCGCTTATCGGGTGCGGAGTCACCTAGTGCAG | 28400 fluorescence intensity (a.u.) |
| CGTTTAATTATTTTAATTCGTATCAAATATCCGATGTGACCGGAGTCACCTAGTGCAG | 25500 fluorescence intensity (a.u.) |
| CATCAATTTTAATAATCAATAATCATCCAAACATTAGTGACGGAGTCACCTAGTGCAG | 13100 fluorescence intensity (a.u.) |
| CAAATTTGGTGGCCCAGTCATTGCAATCATGATGAGAGTCCGGAGTCACCTAGTGCAG | 7840 fluorescence intensity (a.u.) |
